Results: the supplement of paper PMC4967469

Columns and labels:
Assay in all cases: Viability of human cancer cell lines after 72 h of drug (GDSC screen)
Vorinostat = compound: O=C(CCCCCCC(=O)Nc1ccccc1)NO [Vorinostat]; settings: top dose 10 µM
Description: (§1)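 Human cancer cell lines in 384-well plates, medium with 10% serum, drug for 72 h over a 256-fold dose range (nine 2-fold or five 4-fold steps up to the top dose). Adherent lines were fixed and stained with the nucleic acid dye Syto60, suspension lines read with resazurin; signal relative to control wells, capped at 0 and 100%. One two-parameter sigmoid per drug and line, fitted in a mixed model over all curves with the slope shared within a line.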

Methotrexate = compound: CN(Cc1cnc2nc(N)nc(N)c2n1)c1ccc(C(=O)N[C@@H](CCC(=O)O)C(=O)O)cc1 [Methotrexate]; settings: top dose 0.2 µM
Description: as §1

SN-38 = compound: CCc1c2c(nc3ccc(O)cc13)-c1cc3c(c(=O)n1C2)COC(=O)[C@]3(O)CC [SN-38]; settings: top dose 0.05 µM; top dose inferred
Description: as §1

Axitinib = compound: CNC(=O)c1ccccc1Sc1ccc2c(/C=C/c3ccccn3)n[nH]c2c1 [Axitinib]; settings: top dose 2 µM
Description: as §1

Dabrafenib = compound: CC(C)(C)c1nc(-c2cccc(NS(=O)(=O)c3c(F)cccc3F)c2F)c(-c2ccnc(N)n2)s1 [Dabrafenib]; settings: top dose 10 µM
Description: as §1

Cell Line	AUC (Vorinostat)	IC50 (Vorinostat)	AUC (Methotrexate)	IC50 (Methotrexate)	AUC (SN-38)	IC50 (SN-38)	AUC (Axitinib)	IC50 (Axitinib)	AUC (Dabrafenib)	IC50 (Dabrafenib)
SW982 (soft tissue, adherent)	0.795	4780 nM	0.981	> 200 nM	0.297	0.822 nM	0.935	> 2000 nM	0.242	109 nM
EMC-BAC-2 (lung adenocarcinoma, adherent)	0.684	2270 nM	0.809	129 nM	0.668	10.1 nM	0.916	> 2000 nM	0.439	412 nM
COR-L88 (small cell lung carcinoma, adherent)	0.592	1180 nM	0.973	> 200 nM	0.948	> 50 nM	0.967	> 2000 nM	0.983	> 10000 nM
EMC-BAC-1 (lung adenocarcinoma, adherent)	0.564	961 nM	0.781	95.6 nM	0.726	15.2 nM	0.924	> 2000 nM	0.952	> 10000 nM
CRO-AP2 (B-cell lymphoma, suspension)	0.402	349 nM	0.466	10.3 nM	0.442	2.23 nM	0.876	1540 nM	0.964	> 10000 nM
D-392MG (glioma, adherent)	0.87	> 10000 nM	0.835	> 200 nM	0.7	14.2 nM	0.846	> 2000 nM	0.97	> 10000 nM
NCI-H524 (small cell lung carcinoma, suspension)	0.576	983 nM	0.696	41.5 nM	0.859	34.6 nM	0.921	> 2000 nM	0.982	> 10000 nM
OVCA433 (ovary, adherent)	0.771	4250 nM	0.983	> 200 nM	0.513	3.41 nM	0.904	> 2000 nM	0.971	> 10000 nM
ES6 (Ewing sarcoma, adherent)	0.693	2500 nM	0.891	> 200 nM	0.882	> 50 nM	0.937	> 2000 nM	0.907	> 10000 nM
C32 (melanoma, adherent)	0.905	> 10000 nM	0.965	> 200 nM	0.561	4.64 nM	0.878	> 2000 nM	0.08	< 39.1 nM
ABC-1 (lung adenocarcinoma, adherent)	0.72	3040 nM	0.983	> 200 nM	0.582	5.49 nM	0.847	1960 nM	0.921	> 10000 nM
DJM-1 (skin, adherent)	0.765	3630 nM	0.988	> 200 nM	0.478	2.73 nM	0.979	> 2000 nM	0.985	> 10000 nM
HN (head and neck, adherent)	0.679	1910 nM	0.977	> 200 nM	0.42	1.92 nM	0.959	> 2000 nM	0.942	> 10000 nM
OVCA420 (ovary, adherent)	0.779	5560 nM	0.981	> 200 nM	0.858	> 50 nM	0.973	> 2000 nM	0.916	> 10000 nM
SHP-77 (small cell lung carcinoma, semi-adherent)	0.858	6870 nM	0.956	> 200 nM	0.911	> 50 nM	0.992	> 2000 nM	0.987	> 10000 nM
SNU-C5 (large intestine, adherent)	0.681	2110 nM	0.655	35.3 nM	0.615	6.69 nM	0.939	> 2000 nM	0.78	4570 nM
SW954 (urogenital system, adherent)	0.531	762 nM	0.835	134 nM	0.418	1.85 nM	0.924	> 2000 nM	0.963	> 10000 nM
SW1417 (large intestine, adherent)	0.821	7140 nM	0.946	> 200 nM	0.853	49.8 nM	0.986	> 2000 nM	0.928	> 10000 nM
EW-22 (Ewing sarcoma, adherent)	0.686	2030 nM	0.872	177 nM	0.21	0.458 nM	0.971	> 2000 nM	0.981	> 10000 nM
CS1 (bone, adherent)	0.546	848 nM	0.93	> 200 nM	0.528	3.76 nM	0.931	> 2000 nM	0.982	> 10000 nM
HEC-1 (endometrium, adherent)	0.686	2030 nM	0.976	> 200 nM	0.794	22 nM	0.945	> 2000 nM	0.984	> 10000 nM
H2869 (mesothelioma, adherent)	0.864	> 10000 nM	0.984	> 200 nM	0.854	> 50 nM	0.898	> 2000 nM	0.938	> 10000 nM
COLO-668 (small cell lung carcinoma, adherent)	0.805	5030 nM	0.914	> 200 nM	0.64	7.62 nM	0.98	> 2000 nM	0.988	> 10000 nM
BV-173 (chronic myeloid leukaemia, suspension)	0.309	197 nM	0.45	9.31 nM	0.342	1.21 nM	0.512	134 nM	0.53	747 nM
KYSE-520 (oesophagus, adherent)	0.815	8080 nM	0.969	> 200 nM	0.873	> 50 nM	0.969	> 2000 nM	0.979	> 10000 nM
NCI-H1437 (lung adenocarcinoma, adherent)	0.686	2120 nM	0.889	> 200 nM	0.911	> 50 nM	0.95	> 2000 nM	0.985	> 10000 nM

Cell Line	AUC (Vorinostat)	IC50 (Vorinostat)	AUC (Methotrexate)	IC50 (Methotrexate)	AUC (SN-38)	IC50 (SN-38)	AUC (Axitinib)	IC50 (Axitinib)	AUC (Dabrafenib)	IC50 (Dabrafenib)
JHH-6 (liver, adherent)	0.767	3780 nM	0.971	> 200 nM	0.533	3.86 nM	0.984	> 2000 nM	0.979	> 10000 nM
Hs683 (glioma, adherent)	0.901	> 10000 nM	0.986	> 200 nM	0.706	12 nM	0.948	> 2000 nM	0.986	> 10000 nM
LU-135 (small cell lung carcinoma, suspension)	0.612	1200 nM	0.465	10.2 nM	0.878	36.3 nM	0.887	1580 nM	0.992	> 10000 nM
FU97 (stomach, adherent)	0.685	2090 nM	0.98	> 200 nM	0.831	32.8 nM	0.841	1460 nM	0.853	8200 nM
KYSE-50 (oesophagus, adherent)	0.767	3410 nM	0.953	> 200 nM	0.832	28.2 nM	0.99	> 2000 nM	0.973	> 10000 nM
FTC-133 (thyroid, adherent)	0.806	5720 nM	0.958	> 200 nM	0.642	8.03 nM	0.979	> 2000 nM	0.969	> 10000 nM
BICR10 (head and neck, adherent)	0.686	2260 nM	0.981	> 200 nM	0.769	21.7 nM	0.92	> 2000 nM	0.956	> 10000 nM
NCI-H1651 (lung adenocarcinoma, adherent)	0.763	3890 nM	0.978	> 200 nM	0.58	5.28 nM	0.987	> 2000 nM	0.944	> 10000 nM
H3255 (lung adenocarcinoma, adherent)	0.947	> 10000 nM	0.962	> 200 nM	0.791	27.3 nM	0.984	> 2000 nM	0.943	> 10000 nM
SNU-387 (liver, adherent)	0.758	3910 nM	0.984	> 200 nM	0.876	> 50 nM	0.953	> 2000 nM	0.981	> 10000 nM
A704 (kidney, adherent)	0.827	5870 nM	0.988	> 200 nM	0.861	40.4 nM	0.939	> 2000 nM	0.94	> 10000 nM
OE33 (oesophagus, adherent)	0.817	7000 nM	0.892	> 200 nM	0.812	33.3 nM	0.976	> 2000 nM	0.975	> 10000 nM
NCC021 (kidney, adherent)	0.767	4320 nM	0.985	> 200 nM	0.733	16.3 nM	0.926	> 2000 nM	0.938	> 10000 nM
DK-MG (glioma, adherent)	0.871	> 10000 nM	0.977	> 200 nM	0.843	> 50 nM	0.868	> 2000 nM	0.945	> 10000 nM
G-402 (soft tissue, adherent)	0.712	3070 nM	0.977	> 200 nM	0.597	6.32 nM	0.488	114 nM	0.824	8830 nM
Hs633T (fibrosarcoma, adherent)	0.526	724 nM	0.988	> 200 nM	0.309	1.02 nM	0.914	> 2000 nM	0.525	723 nM
BE2-M17 (neuroblastoma, adherent)	0.697	2270 nM	0.987	> 200 nM	0.726	14 nM	0.918	> 2000 nM	0.983	> 10000 nM
GDM-1 (acute myeloid leukaemia, suspension)	0.727	2660 nM	0.987	> 200 nM	0.543	4.08 nM	0.908	> 2000 nM	0.772	3700 nM
KYSE-70 (oesophagus, adherent)	0.786	4730 nM	0.967	> 200 nM	0.906	> 50 nM	0.987	> 2000 nM	0.984	> 10000 nM
LU-65 (large cell lung carcinoma, suspension)	0.986	> 10000 nM	0.987	> 200 nM	0.977	> 50 nM	0.987	> 2000 nM	0.981	> 10000 nM
NCI-H1688 (small cell lung carcinoma, adherent)	0.7	2440 nM	0.984	> 200 nM	0.881	> 50 nM	0.967	> 2000 nM	0.985	> 10000 nM
NCI-H596 (lung adenocarcinoma, adherent)	0.911	> 10000 nM	0.918	> 200 nM	0.973	> 50 nM	0.973	> 2000 nM	0.978	> 10000 nM
SCC-4 (head and neck, adherent)	0.72	2980 nM	0.977	> 200 nM	0.758	20.3 nM	0.902	> 2000 nM	0.947	> 10000 nM
MHH-CALL-2 (B-cell leukaemia, suspension)	0.713	2070 nM	0.857	99.4 nM	0.481	2.8 nM	0.989	> 2000 nM	0.997	> 10000 nM
MPP-89 (mesothelioma, adherent)	0.751	4190 nM	0.95	> 200 nM	0.809	36.3 nM	0.957	> 2000 nM	0.971	> 10000 nM

The IC50 comes from the fitted curve, where viability falls to half of the control; fits outside the tested doses are given as limits. The AUC spans the tested range (256-fold, ending at the top dose) of the same fit; it is 1 without any effect and falls as sensitivity rises. For part of these data: Where the top dose is marked as inferred, it was derived from the fitted curves, not read from the paper.
